Variants at the floor of the assay are shown more often than the library holds them.
B1: TPR 5TU (parent)
chain: GGAUCUUCUCGAUCUAACAAAAAAGACAAAUCUGCCACAAAGCUUGAGAGCAUCUUCGGAUGCAGAGGCGGCAGCCUUCGGUGGCGCGAUAGCGCCAACGUUCUCAACUAUGACACGCAAAACGCGUGCUCCGUUGAAUGGAGUUUAUCAUG

Variants of: B1
Assay: polymerase ribozyme fitness, log enrichment relative to wild type (log ratio); higher = more active; in vitro selection for triplet polymerase activity
In short: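 Fitness measures genotype enrichment against wild-type enrichment on a logarithmic scale, with inverse-variance-weighted averaging of replicates. The logarithm is base 2, and genotypes were kept only with ≥10 input reads and ≥1 read per output in Illumina sequencing. The sequenced libraries came from one triplicate in vitro selection round, including frozen incubation at −7 °C, of PCR-built, transcribed mutant libraries of each subunit of a heterodimeric triplet polymerase ribozyme.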

Variant | polymerase ribozyme fitness (log ratio)
A29G G81C C93A G133A G141A G152U | ≤ -4.2
A28U U33C A52G G65U C75G | ≤ -4.2
A29C U44A U56A C76A C95U | ≤ -4.2
A29U A52U A89G U102G U111C C132U U135A | ≤ -4.2
A29G G42A U53G C75G C87U C93U C114U | ≤ -4.2
A28U A41U G65A C75G G81A A150U | ≤ -4.2
A28U G34U U56A G86C U109C G124U U130C A137C G143U | ≤ -4.2
A29C C32U C35G A66U C87A G94C A107U C125U | ≤ -4.2
A28U C54A G92U C118U G124U C131A A137U | ≤ -4.2
A29C A39U A52U A60C C75U C95A A113U U139C G143U | ≤ -4.2
A28U C75G G80C A97U U101C | ≤ -4.2
A28U C99A | -4.15
A29G A64U C76G C93G G126C C149A | ≤ -4.2
A29C A37U G68C C85G A89U A120U | ≤ -4.2
A29G U45A A107G A115G | ≤ -4.2
A28U G67U C103A | ≤ -4.2
A29U A142G C149U | ≤ -4.2
A28U G62C C87A | ≤ -4.2
A29G C79A G83U G94C A120G | ≤ -4.2
A29G G92U C123A G126U A142U C149U A150U | ≤ -4.2
A29C A40U G80U C87G U104G | ≤ -4.2
A29G U33A U55A G59U C105G A119C U127G | ≤ -4.2
A29C G59U G92C C96A A107G C125U U127G | ≤ -4.2
A29U C36A A47C C118U U146C | ≤ -4.2

Variant | polymerase ribozyme fitness (log ratio)
A29G A39G U77A U145A | ≤ -4.2
A29U C36U G67A C69U C95G G124C A137U | ≤ -4.2
A28U G42A U53A G67C G81A G94A A115U A142C U148C | ≤ -4.2
A29C C87A G100A | ≤ -4.2
A29C A30U A49G C85U G92C | ≤ -4.2
A28U C85G | ≤ -4.2
A29U A30C A47U G94A C118U A119U U144A U145C | ≤ -4.2
A29C U53G G58C C99G A137G | ≤ -4.2
A29C U55A G67A G83C G124A G126U A138C | ≤ -4.2
A29U A40C U53A A60C C93A | ≤ -4.2
A29C C96G G143A | ≤ -4.2
A29C C38G A41G U135A | ≤ -4.2
A29C A30G C51U G81A G126U U146G | ≤ -4.2
A29U C32A A41U G71C C85U C87U A98C | ≤ -4.2
A29C C132A U139C G143A A150U | ≤ -4.2
A29G C69U | ≤ -4.2
A28U U44G G50U C87G A91U C108G A115G G117C C129U U134G | ≤ -4.2
A29C A30U G42U C93U C105G U139G | ≤ -4.2
A29C U56A C93A | ≤ -4.2
A29G A41G G81C G94C C105G G133C | ≤ -4.2
A29G G50C C96G U102A A150U | ≤ -4.2
A29C A52G C87U G100C A138U U139A A147C | ≤ -4.2
A28U A49C C57A A91U U134G | ≤ -4.2
A28U C87U A106U C108U A119C U148C | ≤ -4.2

Variant | polymerase ribozyme fitness (log ratio)
A29U C36U A64C C69U C95A G141C A142C | ≤ -4.2
A29C U33G G83U U90A U127C A138U U148A | ≤ -4.2
A28U G42U G59C A64C U78C C87A | ≤ -4.2
A29U C54G G84U C85G U134G | ≤ -4.2
A28U C63U G92A C103U U148G | ≤ -4.2
A29C A150U | ≤ -4.2
A28U C63G G83U C87U U111G | ≤ -4.2
A28U C57A G68A U104A C118G U139C G140A U145C | ≤ -4.2
A29C G46A G86C | ≤ -4.2
A29C U33A A41U G42A G83C C96U C108G | ≤ -4.2
A29C U90G | ≤ -4.2
A28U G88A G94A C99G C103G U104A A107G | ≤ -4.2
A29U C51U G81U C93A G100A | ≤ -4.2
A29C A41G A97C A122U | ≤ -4.2
A29U C43G G58A G86A U90G C105A C149U | ≤ -4.2
A29C U31C G88C A122C | ≤ -4.2
A29C C38G G65U U77A G81C A137G | ≤ -4.2
A29U A41C C54A G84A G126U G141A | ≤ -4.2
A29C C54U C85G G86A C95G C103G G141U | ≤ -4.2
A29G G68U C95G | ≤ -4.2
A28U C35U G86U | ≤ -4.2
A29G A41G G59C C93U G94A | ≤ -4.2
A29C G34C U82G C118A A138C | ≤ -4.2
A29U C38G A52U | ≤ -4.2

Variant | polymerase ribozyme fitness (log ratio)
A29G C63G C99G A106C | ≤ -4.2
A28U C32G C36U U44G U77C C79U G83C G92U C118A G128C A138G C149G | ≤ -4.2
A29C U33C U44A G80U C85U C93U G136U | ≤ -4.2
A28U U56C C79A | ≤ -4.2
A29U A41C U61A G67U G86U G92A C93A G133C | ≤ -4.2
A29G A60C A89G A110U G143A | ≤ -4.2
A29C C32A | ≤ -4.2
A29U A91C A120G | ≤ -4.2
A29U C35U C54U U56A U90A A106C A121U | ≤ -4.2
A29G G50A G67U C75G C85A C123G C125G C132U A142C | ≤ -4.2
A29C G58U A60U G80C C95A | ≤ -4.2
A28U U56A C76U G94C G112A | ≤ -4.2
A29U A30C C32A U56A U77C A121U | ≤ -4.2
A28U G46C A52G C54U U56A C95A C108U C129G | ≤ -4.2
A29U A52C U53A G80A C93G C108U A121C C149G | ≤ -4.2
A28U U56A A91U C96G A107G C118A U145G | ≤ -4.2
A29C C38U G92C C114G C116A G143C | ≤ -4.2
A29C G58A G83A C118U | ≤ -4.2
A29U A60G G92C | ≤ -4.2
A29U C38U G46A A60U C95A G126U | ≤ -4.2
A28U A41U G67C C93U G124C U135A | ≤ -4.2
A29G A41C U82G A106C | ≤ -4.2
A28U A52C G94U C96G | ≤ -4.2
A28U C36G G71U C95U C123U | ≤ -4.2

Variant | polymerase ribozyme fitness (log ratio)
A29G U56C C85G | ≤ -4.2
A29C G58C G81A G88A | ≤ -4.2
A28U G94C G143U G152C | ≤ -4.2
A29G A52C A73C G92C C105A | ≤ -4.2
A29U C32G G88C C95G U135C | ≤ -4.2
A28U G42C A52C G100C G117C | ≤ -4.2
A28U U31C G50A C96U U134A | ≤ -4.2
A29G C54G G88U G94U C114U A138G | ≤ -4.2
A28U A60C C87A C96U | ≤ -4.2
A29C A41U G81C G86C C105G A106U | ≤ -4.2
A29C C76A C87G | ≤ -4.2
A29C A39U A52C U101G C125G G126A G143U U146C | ≤ -4.2
A28U C51U A110G | ≤ -4.2
A29G G48A C96A | ≤ -4.2
A28U G59A C87A G136U | ≤ -4.2
A29C G58C G88U C114U C116A C118U | ≤ -4.2
A29G C85A | ≤ -4.2
A28U A73U G84U G100A C125G | ≤ -4.2
A29C U77G G94U G136U U139C | ≤ -4.2
A29G U55G C57G C87A A107G | ≤ -4.2
A28U U61C G68A G86A A89U G117C | ≤ -4.2
A28U U53A A64C G74C C87A C108U G112A C116U A138U A142U | ≤ -4.2
A29U A52G U55C U134A | ≤ -4.2
A29G C76G C93U | ≤ -4.2

Variant | polymerase ribozyme fitness (log ratio)
A28U G86A A89G A120C A142C G143A | ≤ -4.2
A28U C57U G84U G94A A98U C116A A147C | ≤ -4.2
A29G G50C U55G A66U U102G | ≤ -4.2
A29G G112C U135A A138G U146G | ≤ -4.2
A29U C32G C43U G46A A52G U56A A66G A73G C87G U144A | ≤ -4.2
A29C A52G U53A C93U G124A | ≤ -4.2
A28U G67A U77C G92U U144A | ≤ -4.2
A29C G58U U145A | ≤ -4.2
A28U G34A A142G | ≤ -4.2
A29G C36U U44C C116A A121C U139A G140A | ≤ -4.2
A28U A106G A107U A119G | ≤ -4.2
A29U C35U G48A U61A C96U A106U A122C | ≤ -4.2
A29C G83C G100C C116A C118G | ≤ -4.2
A29C C57G G71A U90C | ≤ -4.2
A29G C105G | ≤ -4.2
A28U A73U C95U A121G | ≤ -4.2
A29C C63U G65U U144G | ≤ -4.2
A28U A47U C57U G58C C99A | ≤ -4.2
A29C A66G C75G C93G C99A G124A G128U | ≤ -4.2
A29G G34C C69G G128C | ≤ -4.2
A29C G68C A142U | ≤ -4.2
A28U G46C C51U | ≤ -4.2
A28U G48C G59A A66U C69U | ≤ -4.2
A29C C51A | ≤ -4.2

Variant | polymerase ribozyme fitness (log ratio)
A28U U61A C76A C87U G88C U135C | ≤ -4.2
A28U G65U U82G U101G C103A G152U | ≤ -4.2
A28U C35U A39C G68C C76U C85G U135G | ≤ -4.2
A28U U56A | ≤ -4.2
A28U C95A | -3.41
A28U A147C U151C G152C | ≤ -4.2
A28U U31C G48A G68A C87A C123U A137G | ≤ -4.2
A29U A37C A49C A52G U53A G70U G143C | ≤ -4.2
A29G C36A A47C G50C C76A C85U C118A A121U U135G | ≤ -4.2
A28U U45A C57U A60G C75G G94A G126C | ≤ -4.2
A29C C32G C57A U77A G88C A115U U130A | ≤ -4.2
A29G U78G C95U | ≤ -4.2
A29C G46A U53A G68C C75A | ≤ -4.2
A29U A89U G94A C116G G141A | ≤ -4.2
A29C A40U C87U U104G G143C | ≤ -4.2
A29G C35A U56C C69G G71U A91G A98U A138G | ≤ -4.2
A29C G58C A66U G84U G92C C99G A119G G143U | ≤ -4.2
A29G C99G C125U | ≤ -4.2
A29U A30U G42U C85U A107U | ≤ -4.2
A29G C36G C96A A97U A110G A119U G126C | ≤ -4.2
A29U A60G G65C G70U C76A U82C C87G G126U | ≤ -4.2
A28U U33G U55A U101G A113U U144A | ≤ -4.2
A29U C32G C79U U130G | ≤ -4.2

Source: the RNAGym collection of RNA variant scans (doi:10.1073/pnas.2313332121)
